ChEMBL document CHEMBL4888484, “Replenishing the malaria drug discovery pipeline: Screening and hit evaluation of the MMV Hit Generation Library 1 (HGL1) against asexual blood stage Plasmodium falciparum ,using a nano luciferase reporter read-out” (2022)
Out of some 150,000 compounds screened, about 540 (0.36%) showed an effect of 50% or more. Some of the results follow.

test system: Plasmodium falciparum; assay: Primary screen in NF54 nanoGlo assay, in single point, at 2uM, 72h; a lower Z score goes with more inhibition; type: functional, Erythrocyte; conditions: timepoint 72 hour

Compound | % Inhibition | Z score
O=C(c1cccc[n+]1[O-])N1CCCCCCC1 | 4% | -0.6
Cc1nc(C(=O)N[C@@H](C)C(C)(F)F)c[nH]1 | -16% | 1.88
Nc1nccnc1C(=O)N1CCCCO1 | -1% | 0.09
Cn1cccc(C(=O)NC2CCN(c3cc(C4CC4)[nH]n3)CC2)c1=O | -3% | 0.59
O=C(C[C@H]1CCOC1)NC1(C2CCCCC2)CC1 | 1% | -0.17
C=CCNC(=O)[C@H](C)N(C)CCOc1ccccc1 | 6% | -0.77
COc1ccc(C(C)CC(=O)N2CCCC2C2COCCC2(C)O)cc1 (stereo not drawn) | -3% | 0.51
CC1CC1N1CC(NC(=O)c2ncn(C(C)(C)C)n2)CC1=O (stereo not drawn) | -7% | 1.3
COc1ccc(C(F)(F)F)cc1NC(=O)c1ccc(-n2cncn2)nn1 | -1% | 0.09
O=C(c1cc(C2CC2)[nH]n1)N1CCCN(C[C@H]2CCCO2)CC1 | 0% | -0.01
COC(=O)c1nc(NC(=O)c2c(C)nn([C@H]3CCS(=O)(=O)C3)c2C)sc1C | -10% | 1.19
O=C(c1n[nH]c2c1COc1ccccc1-2)N1CCN(Cc2ccc3c(c2)OCO3)CC1 | -6% | 0.9
COc1nc(N2CCn3nc([C@@H](O)CS(C)(=O)=O)cc3C2)ncc1F | 3% | -0.29
Cn1ccnc1CN1C[C@@H](COc2cccc(C(F)(F)F)c2)C[C@@H](C(=O)NC2CCCCC2)C1 | -19% | 2.23
CCN1C(=O)CCc2cc(N[C@@H](C)c3nccn3C)ccc21 | -10% | 1.11
CN(C)[C@@H]1C[C@@H](CO)N(C(=O)c2cccc(Oc3ccccc3)c2)C1 | -2% | 0.26
C[C@H]1C[C@H](NC(=O)c2sccc2F)c2ccsc2S1(=O)=O | -11% | 1.06
Cc1ccc(C(=O)N2CCOc3ccc(C(=O)N4CCOCC4)cc3C2)cc1F | 0% | 0
Cc1ccc(-c2nc(CC(=O)Nc3ncc(C)s3)cs2)o1 | -13% | 1.83
O=C(c1cccnc1-c1cnc2ccccc2c1)N1CCCC1 | -9% | 1.68
COc1ccc([C@@H]2CCCN2C(=O)c2ccc3c(c2)C(=O)N(Cc2ccco2)C3=O)cc1 | -8% | 1.2

Compound | % Inhibition | Z score
CC1CC(NC2CCN(c3ccc(C#N)cc3)CC2)C1 (stereo not drawn) | -10% | 1.32
CC(=O)O/N=C(/c1nonc1N)N(C)C | 3% | -0.51
c1cnc(-c2ccnc(NC3CC4CCC3C4)n2)cn1 (stereo not drawn) | 6% | -1.11
O=C(N[C@@H]1CN(Cc2ccc(F)cc2)CC[C@@H]1CO)c1ccccc1 | -11% | 1.4
CN(C)c1ccc(CNC(=O)[C@H]2CCCN(c3nc4ccccc4[nH]3)C2)cc1 | 0% | 0.06
COc1c(C#N)c(C#N)c(OC)c(OC)c1OC | -2% | 0.33
CC(C)c1nnc(CN[C@H]2CC(C)(C)CCc3ccccc32)o1 | -5% | 0.62
CCOCc1nc2c(c(NCCn3cc(Cl)cn3)n1)CCNCC2 | 13% | -1.7
CCN1C(=O)CCc2cc(C(=O)N3CCC(C)CC3)ccc21 | -7% | 1.18
COC[C@](C)(NCc1ccc2cn[nH]c2c1)C(F)(F)F | -7% | 1.35
C[C@@H]1CN(CC(=O)NCCc2nnc(N)s2)C[C@H](C)O1 | -1% | 0.19
Cc1cc(C)c(C(=O)NC(C2CCNCC2)[C@H]2C[C@H](O)C2)c(C)c1 (stereo partly drawn) | 6% | -0.74
FC(F)(F)c1ccc2nnc([C@H]3CCCN(CN4CCOC4=S)C3)n2c1 | 7% | -0.99
COc1cc2cc(c1)C(=O)NCCCC(=O)N[C@H]1CN(Cc3ccnc(C(C)C)n3)CC[C@@H]1OCc1cccc(c1)O2 | -14% | 2.67
Cc1ccc(CNC(=O)Cn2c(=O)ccc3cc(S(=O)(=O)N4CCC(C)CC4)ccc32)o1 | -9% | 1.2
CC1CCN(S(C)(=O)=O)C(C(C)O)C1 (stereo not drawn) | -5% | 0.67
Cc1csc(CNC(=O)c2ccc(C)o2)n1 | -8% | 1.03
CCCc1ncn(Cc2nc(-c3ccccc3Cl)oc2C)n1 | -3% | 0.38
COc1nc(C)c(-c2cccc(C(=O)NC(C)(CO)CO)c2)c(C)c1C#N | -10% | 1.08
O=C(c1ccc2c(c1)OCO2)N1C2CCC1CC(S(=O)(=O)c1ccccc1)C2 (stereo not drawn) | -7% | 0.88
O=S(=O)(Cc1ccccc1F)N1CCC[C@H]1c1noc(COCc2ccccc2)n1 | 1% | -0.08

Compound | % Inhibition | Z score
O=C(COc1ccccc1Cl)Nc1cc(S(=O)(=O)N2CCCC2)ccc1OCC(F)(F)F | 8% | -0.95
O=C1CCc2cc(S(=O)(=O)N3CCCC3)cc3c2N1CCC3 | -12% | 1.54
O=C1C[C@H]2CC[C@@H](CN1)N2c1cc(-c2ccccc2F)nc2ccnn12 | -8% | 0.96
Cc1cc(S(=O)(=O)Nc2nccc(C)c2C2CC2)sc1C | -7% | 1.09
COc1cc2c(cc1-c1nc3c([nH]1)c(C)nn3Cc1cccc(C)c1)OCO2 | 13% | -1.61
COc1ccccc1-n1ncnc1[C@@H]1COCCO1 | 1% | -0.11
Cc1ccc(Cc2nc3nc4c(c(Nc5ccc6c(c5)OCCO6)n3n2)CCCC4)cc1 | -12% | 1.1
C[C@H](OC(=O)CNC(=O)COc1ccccc1)c1nc2ccccc2n1C(F)F | -4% | 0.39
COc1ccc(C)cc1-n1ccnc1-c1cc2n(n1)CCCNC2 | -11% | 1.06
CC[C@H](C)C(=O)Nc1ccccc1C(=O)NCc1nc(-c2cccnc2)no1 | 9% | -1.19
O=C(COCc1cc(-c2ccco2)on1)NCCN1CCOCC1 | -2% | 0.2
O=C(c1cncc(F)c1)N1CC(CN2C(=O)CCC2=O)C1 | -19% | 3.63
C[C@H](O)CN1CCN(Cc2nc(C(=O)Nc3ccc(F)cc3)co2)CC1 | -9% | 1.6
O=C1CN(Cc2ccc3cc[nH]c3n2)CCCN1 | 5% | -0.45
O=C([C@H]1CCOC1)N1CCN(C(=O)N2CCN(Cc3ccccc3)CC2)CC1 | -1% | 0.15
O=C1Cc2cc(S(=O)(=O)Nc3ccc4c(c3)OC(F)(F)O4)ccc2N1 | -1% | 0.14
CC(C)c1noc(CCC(=O)NC[C@H](C)N2CCc3ccccc32)n1 | -11% | 1.54
O=S(=O)(c1ccccc1)N1CCN(Cc2cncc(F)c2)CC1 | -5% | 0.88
NC(=O)Cn1nnc(-c2ccc3c(c2)OCO3)n1 | -10% | 1.26
CC(C)CN(C)CCCN1CC2(CCN(Cc3cccc(F)c3)CC2)OC1=O | -1% | 0.16
CN(C)C(=O)CNS(=O)(=O)c1c(Cl)cc(F)cc1Cl | -12% | 1.92

Compound | % Inhibition | Z score
COc1ccc(C(=O)N2CCC[C@@H]2C(N)=O)cc1OC1CCN(C(C)C)CC1 | 3% | -0.33
CN1c2cc(C(=O)NCc3ccc(F)cc3)ccc2C(=O)N2CCC[C@@H]21 | -3% | 0.44
Cc1cnc(CNc2nc(CC(C)C)ns2)nc1 | -15% | 1.89
CCOc1ccccc1[C@@H]1CC(c2ccc(C)cc2)=NN1c1nc(-c2ccccc2)c2cc(Cl)ccc2n1 | -8% | 1.44
CC(NC(=O)CC1CCCCC1C)c1nnc2c(=O)[nH]ccn12 (stereo not drawn) | 22% | -2.76
CCN(CC(F)(F)F)C(=O)Nc1ccc(OC)cc1F | -5% | 0.91
Cc1ccccc1N1CCN(C(=O)c2n[nH]c3c2CN(C(=O)C2CCC2)CC3)CC1 | -12% | 1.17
O=C(N[C@@H]1CN(Cc2ccc(F)cc2F)C[C@H]1CO)c1ccccc1 | -18% | 2.51
CNC(=O)C(C)(C)CNCc1ccccc1-c1ccnn1C | 22% | -2.86
O=C(Nc1cccc2cccnc12)N1CC[C@H](OCC2CC2)C1 | 2% | -0.4
COc1ccccc1N1CCN(C(=O)C[C@]2(c3ccccc3OC)CC(=O)N(C)C2=O)CC1 | 10% | -1.23
NC[C@H]1CCN(Cc2cccn2-c2ncccn2)C1 | 8% | -0.78
N#Cc1ccccc1C(=O)N1CCC(Oc2ccccc2)(C(=O)O)CC1 | 0% | 0.03
C[C@H]1CN(Cc2ccc(Cl)c(F)c2)CC[C@]1(O)C1CC1 | -7% | 0.97
O=C(CC1CC2CCC1O2)Nc1ncccc1Cl (stereo not drawn) | -3% | 0.64
CCC1CC(CC(=O)Nc2ncc3cccnc3n2)CCO1 (stereo not drawn) | 3% | -0.51
Cn1c(CN2CCCC2)nnc1[C@H]1CCCN(c2nccc(N)n2)C1 | -3% | 0.57
CN1CCN(c2cccc(N3CCC(N4CC(N5CCOCC5)C4)CC3)c2)C1=O | -6% | 1.26
CC(C)COc1cccc(Cn2cc(CN3CCOC[C@H]3C)nn2)c1 | -2% | 0.4
COc1cccc(Cn2cc(CN3CCOCC3)cc(C#N)c2=O)c1Cl | 24% | -3.11
CCOC(=O)C[C@H](N)c1cccc(Cl)c1Cl | 1% | -0.1
